# Some of the results follow. Values were computed here from the reads of four pooled replicates and scatter widely.
# Molecular target: T1, Pho4 (S. cerevisiae) (UniProt P07270)
# T1 sequence: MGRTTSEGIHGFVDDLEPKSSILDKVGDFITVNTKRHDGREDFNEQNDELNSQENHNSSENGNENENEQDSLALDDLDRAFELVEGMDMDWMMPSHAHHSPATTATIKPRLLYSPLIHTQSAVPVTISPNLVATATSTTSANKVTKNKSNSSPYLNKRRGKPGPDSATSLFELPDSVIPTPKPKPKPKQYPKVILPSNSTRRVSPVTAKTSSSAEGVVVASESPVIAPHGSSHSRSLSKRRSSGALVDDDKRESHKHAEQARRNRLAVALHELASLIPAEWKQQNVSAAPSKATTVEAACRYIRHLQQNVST
# Test: relative binding free energy (BET-seq); higher = weaker binding
# Details: reference: library average
row,Sequence,relative binding free energy
1,CTTATCACGTGAGTGA,0.38 kcal/mol
2,GTGTACACGTGAGCTA,0.35 kcal/mol
3,GGGTTCACGTGTAGAA,0.22 kcal/mol
4,AGGCGCACGTGTCGGG,-0.03 kcal/mol
5,CAGGGCACGTGGTGCA,-0.25 kcal/mol
6,TGGGTCACGTGGTGTT,0.17 kcal/mol
7,TGGATCACGTGTGTCT,0.15 kcal/mol
8,CATGTCACGTGAAGGT,0.19 kcal/mol
9,GGGCGCACGTGTGACG,-0.05 kcal/mol
10,GGGTTCACGTGGCAGT,0.3 kcal/mol
11,GGTTACACGTGTTCTA,0.12 kcal/mol
12,TCTGACACGTGTGGGT,0.06 kcal/mol
13,TTGTGCACGTGATTAG,0.18 kcal/mol
14,ATGTGCACGTGTAGAG,-0.05 kcal/mol
15,TTAAGCACGTGTACGT,-0.09 kcal/mol
16,CTTTACACGTGTGAGG,0.04 kcal/mol
17,TTGTGCACGTGTGATG,0.09 kcal/mol
18,TTTGACACGTGTTACT,-0.06 kcal/mol
19,GGTAACACGTGTTGAA,0.13 kcal/mol
20,GTTCGCACGTGAGGTT,0.29 kcal/mol
21,GGGTTCACGTGTTCGG,0.33 kcal/mol
22,GGGATCACGTGGTGGC,0.16 kcal/mol
23,AGAAGCACGTGTATGG,-0.07 kcal/mol
24,ATTGACACGTGAAGTG,0.16 kcal/mol
25,TTAGTCACGTGATGTT,0.18 kcal/mol

row,Sequence,relative binding free energy
1,GTTTACACGTGTGGGC,0.23 kcal/mol
2,TGCTACACGTGGGGTC,-0.04 kcal/mol
3,GAGTTCACGTGTTGCG,0.22 kcal/mol
4,ATAAGCACGTGGTTGA,-0.17 kcal/mol
5,TAGGACACGTGCTGTT,-0.03 kcal/mol
6,AGTGTCACGTGGTGCA,-0.17 kcal/mol
7,TCGGTCACGTGGAGAG,0.11 kcal/mol
8,CGTTGCACGTGTATGT,0.04 kcal/mol
9,CGTTACACGTGTTTAT,0.02 kcal/mol
10,TAATGCACGTGCTTGG,-0.07 kcal/mol
11,GCTGGCACGTGAGGCT,0.14 kcal/mol
12,TTGTGCACGTGATTCA,0.03 kcal/mol
13,GTTAGCACGTGACATG,0.12 kcal/mol
14,GGGTCCACGTGCTAGG,0.08 kcal/mol
15,CGGAACACGTGGTGGA,-0.13 kcal/mol
16,AAAGTCACGTGTTAGG,-0.07 kcal/mol
17,GTTGCCACGTGGTGTG,-0.17 kcal/mol
18,TGGTTCACGTGTTGAA,0.3 kcal/mol
19,CATGTCACGTGTGAGG,0.11 kcal/mol
20,TTTAACACGTGTGTTA,0.05 kcal/mol
21,TGGCTCACGTGATGGC,0.43 kcal/mol
22,TTGGACACGTGAGCGG,0.05 kcal/mol
23,GAGCGCACGTGGGATT,-0.03 kcal/mol
24,TTTAGCACGTGTGTTC,0 kcal/mol
25,GTACGCACGTGAGGTG,0.15 kcal/mol

row,Sequence,relative binding free energy
1,AGCGGCACGTGTTTGT,-0.04 kcal/mol
2,TAGGTCACGTGTGAAT,0.24 kcal/mol
3,TTAGTCACGTGTCAAG,0.06 kcal/mol
4,TGTTGCACGTGTATAT,0.05 kcal/mol
5,TAGAGCACGTGCGGTC,0 kcal/mol
6,TGCAACACGTGTGTTT,-0.07 kcal/mol
7,GTGAGCACGTGGTACG,-0.23 kcal/mol
8,GTTAGCACGTGAGCTA,0.24 kcal/mol
9,ATCATCACGTGTTGGT,0.08 kcal/mol
10,ACTTGCACGTGGGTGG,-0.14 kcal/mol
11,TTAGGCACGTGGACAG,0.06 kcal/mol
12,TTTTTCACGTGAAAGC,0.38 kcal/mol
13,TGGTCCACGTGCATGG,-0.03 kcal/mol
14,TCTATCACGTGGTAGA,0.2 kcal/mol
15,TGTAACACGTGGCGAG,0 kcal/mol
16,TGGTCCACGTGGTTGT,-0.04 kcal/mol
17,AGACACACGTGGTTGT,-0.04 kcal/mol
18,GCTAGCACGTGTTGGG,-0.03 kcal/mol
19,GGTGGCACGTGATCAG,-0.03 kcal/mol
20,GTGTGCACGTGGTCCT,-0.12 kcal/mol
21,TTATTCACGTGGACTG,0.08 kcal/mol
22,TTAATCACGTGTCATT,0.04 kcal/mol
23,AGGTACACGTGGCGTG,-0.04 kcal/mol
24,CTTAGCACGTGTAGTT,0.02 kcal/mol
25,GTGTACACGTGTGCTA,0.08 kcal/mol

row,Sequence,relative binding free energy
1,CCGGTCACGTGAGGTT,0.31 kcal/mol
2,GTGAACACGTGTTGTA,0.05 kcal/mol
3,GTTGGCACGTGTTGAT,0.03 kcal/mol
4,AGAGACACGTGTTTGT,-0.09 kcal/mol
5,TGGCGCACGTGTAAAG,0.06 kcal/mol
6,ATAGGCACGTGTTTTA,-0.22 kcal/mol
7,TTGGCCACGTGATGGT,0.12 kcal/mol
8,GGTTACACGTGGCATG,0.09 kcal/mol
9,AGAGGCACGTGGCAGT,-0.27 kcal/mol
10,TACAACACGTGGGGTT,-0.23 kcal/mol
11,ACAGTCACGTGGGTTG,-0.09 kcal/mol
12,AAGTACACGTGTTGAA,0.06 kcal/mol
13,GGGCACACGTGAAGTG,0.26 kcal/mol
14,GGGGGCACGTGTTTGG,-0.02 kcal/mol
15,GAATGCACGTGGGGTT,0.06 kcal/mol
16,AGGTTCACGTGGTCAA,0.24 kcal/mol
17,TGCGGCACGTGGTAAG,-0.18 kcal/mol
18,GTATGCACGTGACGTT,0.03 kcal/mol
19,CAATTCACGTGTTTTG,0.3 kcal/mol
20,TTGTGCACGTGACGTT,0.07 kcal/mol
21,TTGGCCACGTGACAGG,0.11 kcal/mol
22,TGTATCACGTGCGTGC,0.06 kcal/mol
23,GTGCGCACGTGCGCGG,-0.26 kcal/mol
24,TTTTCCACGTGGGCAG,0.01 kcal/mol
25,TATAGCACGTGAGGAC,0.3 kcal/mol

row,Sequence,relative binding free energy
1,TTTAACACGTGTATTT,0.02 kcal/mol
2,TTTTGCACGTGCCTTG,-0.2 kcal/mol
3,AAGCTCACGTGGGTGA,0.12 kcal/mol
4,TCTGTCACGTGTCTGG,0.05 kcal/mol
5,GCTGGCACGTGGTAAT,-0.11 kcal/mol
6,GTGCGCACGTGTTCGG,-0.21 kcal/mol
7,TGGGTCACGTGGGAGC,0.08 kcal/mol
8,GGAGTCACGTGTATGC,0.14 kcal/mol
9,TGGTACACGTGATCTT,0.11 kcal/mol
10,GATTTCACGTGCTTGT,0.19 kcal/mol
11,GAAAGCACGTGTATGT,0.01 kcal/mol
12,CTTAGCACGTGTGGGG,-0.09 kcal/mol
13,AAGTTCACGTGAATTT,0.39 kcal/mol
14,TTTTGCACGTGTATTG,0.08 kcal/mol
15,ATCGTCACGTGCAGGT,0.05 kcal/mol
16,TATTTCACGTGAATAA,0.32 kcal/mol
17,GGCGTCACGTGTTGGC,0.17 kcal/mol
18,TTAGTCACGTGAGCTT,0.24 kcal/mol
19,ACATTCACGTGTATGG,0.21 kcal/mol
20,GGATGCACGTGTGGGA,0.11 kcal/mol
21,TTGGTCACGTGCGGTT,0.14 kcal/mol
22,TTCGCCACGTGTTGGG,-0.19 kcal/mol
23,TTTGGCACGTGATAGT,0.1 kcal/mol
24,TGAGTCACGTGACAGG,0.14 kcal/mol
25,GTAGGCACGTGGTGAT,-0.09 kcal/mol

row,Sequence,relative binding free energy
1,TATGGCACGTGCTGGC,-0.01 kcal/mol
2,CGGTTCACGTGTCGGA,0.31 kcal/mol
3,GTAAGCACGTGAGTAT,0.12 kcal/mol
4,TTGGGCACGTGAAATA,0.27 kcal/mol
5,ATAGGCACGTGAACGG,0.01 kcal/mol
6,CGGCGCACGTGTGAAG,0.13 kcal/mol
7,TGAGGCACGTGTAGCG,-0.11 kcal/mol
8,GTTGGCACGTGCAAGT,-0.09 kcal/mol
9,ACGTACACGTGGGGAG,-0.1 kcal/mol
10,GTTGACACGTGGTTAC,0.03 kcal/mol
11,TTGGCCACGTGTTGGT,0.06 kcal/mol
12,CTAAGCACGTGGGGTA,-0.21 kcal/mol
13,CATTGCACGTGGAGGG,-0.05 kcal/mol
14,ATTGACACGTGAGGAG,0.06 kcal/mol
15,ATGGTCACGTGGATTA,0.16 kcal/mol
16,CGGAACACGTGCGGGG,-0.13 kcal/mol
17,CGCGGCACGTGATGGA,-0.03 kcal/mol
18,AACTGCACGTGTGTGG,-0.12 kcal/mol
19,CGGGGCACGTGGGGGT,-0.32 kcal/mol
20,TCGGTCACGTGGGATG,-0.09 kcal/mol
21,ATGTTCACGTGTGGGG,0.27 kcal/mol
